This is one part of the list. At the low end of the ranking, values are background and their order means little.
Tested on: T1, GST-NbGlk1(82-244)
T1 sequence: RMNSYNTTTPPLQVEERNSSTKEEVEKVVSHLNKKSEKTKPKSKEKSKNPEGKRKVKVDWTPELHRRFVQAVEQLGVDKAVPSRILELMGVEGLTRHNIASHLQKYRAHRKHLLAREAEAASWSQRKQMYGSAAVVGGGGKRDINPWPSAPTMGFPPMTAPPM
Test: protein-binding microarray;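 also: rank-based score ranging −0.5 to +0.5 with E above 0.45 taken as significant binding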
Settings: NbGlk1 is a Golden2-like transcription factor of Nicotiana benthamiana; high values mean tight binding; most listed sequences are background and not binding sites; double strand, one strand shown

Row | Sequence | binding signal
1 | AGCTTCCC | -0.151 E-score
2 | AGATGCAT | -0.0143 E-score
3 | ATGTAAGG | -0.153 E-score
4 | AATTTGCT | 0.0921 E-score
5 | AACTATGT | -0.0318 E-score
6 | ACCCCTGG | -0.163 E-score
7 | AACGGTAA | 0.106 E-score
8 | ACTGGTAC | -0.262 E-score
9 | AGCCAAGG | -0.218 E-score
10 | CACGAAAA | 0.0136 E-score
11 | CACTAGAG | -0.0409 E-score
12 | AGTTGCAA | 0.0931 E-score
13 | AGCGGTCG | -0.232 E-score
14 | CAGAAAAG | 0.000659 E-score
15 | ATAGGACC | -0.189 E-score
16 | ACAGAGCT | -0.107 E-score
17 | ACACAACA | 0.0514 E-score
18 | ACAAACGA | 0.07 E-score
19 | AAATAACG | 0.0986 E-score
20 | ACATTAGC | 0.0282 E-score
21 | CACTAGTA | 0.00522 E-score
22 | AAACACAT | -0.0343 E-score
23 | AGATGGCA | -0.111 E-score
24 | AGTAACAT | 0.0145 E-score
25 | ATGGCTAC | -0.324 E-score

Row | Sequence | binding signal
26 | AATGAGGA | -0.0512 E-score
27 | ACTGGCCT | -0.242 E-score
28 | AATAACTG | 0.062 E-score
29 | AGCAGGGA | -0.142 E-score
30 | ATCAGCAT | 0.211 E-score
31 | ATAGAGCA | -0.0102 E-score
32 | AATGTGTC | -0.0182 E-score
33 | AATTAAGC | 0.00875 E-score
34 | ATATAGTC | 0.00479 E-score
35 | AGAGGTAA | 0.0195 E-score
36 | AGGGAATG | 0.00941 E-score
37 | ACGTTAAA | 0.0939 E-score
38 | ATGGAGCG | -0.184 E-score
39 | ATAAATGC | -0.0113 E-score
40 | ACATATAA | 0.0975 E-score
41 | CACGAGCA | -0.117 E-score
42 | ACAAAGTA | -0.031 E-score
43 | AGACCTAG | -0.244 E-score
44 | ACGAGCTG | -0.132 E-score
45 | ATGCACAG | 0.0282 E-score
46 | AGTGTGAG | -0.0935 E-score
47 | AAATAGCG | 0.0624 E-score
48 | ATCGCGTA | 0.357 E-score
49 | AACCTTGT | -0.13 E-score
50 | CACTCCGA | -0.147 E-score

Row | Sequence | binding signal
51 | AGCGACCC | -0.302 E-score
52 | ACCGAGGG | -0.226 E-score
53 | AGGCACCC | -0.274 E-score
54 | ACACTCCG | -0.103 E-score
55 | ACATCGGC | -0.12 E-score
56 | ACACATGC | -0.0831 E-score
57 | AGTCCAGC | -0.15 E-score
58 | ATTTGGGG | 0.126 E-score
59 | AGCTTTAG | -0.26 E-score
60 | ATCACCGA | 0.144 E-score
61 | AGTCCCCC | -0.165 E-score
62 | ACATCCAA | 0.0436 E-score
63 | CACAGGCA | -0.091 E-score
64 | AGCAAGGC | -0.181 E-score
65 | ATTCCGTC | 0.262 E-score
66 | ACCCAAAG | -0.191 E-score
67 | AACGCCAC | -0.226 E-score
68 | ACGATATA | 0.196 E-score
69 | ACAGTGTA | 0.105 E-score
70 | ATGTGATG | -0.0778 E-score
71 | ACGACTCG | -0.052 E-score
72 | AAGCCTCT | -0.272 E-score
73 | AAACGGCT | -0.136 E-score
74 | AGCAGTAT | 0.212 E-score
75 | AAGGAGAC | -0.288 E-score

Row | Sequence | binding signal
76 | CAGCATAC | -0.0121 E-score
77 | AGAGGAGA | -0.0344 E-score
78 | ACACGTAA | 0.158 E-score
79 | ATCCACGG | 0.262 E-score
80 | CAGATAGG | -0.172 E-score
81 | AGTATCTG | 0.339 E-score
82 | ATCCAGTA | 0.326 E-score
83 | ACTCAAAC | -0.0808 E-score
84 | ATGATCAT | 0.13 E-score
85 | CACTTGAG | -0.0279 E-score
86 | CAGAGTGA | -0.0121 E-score
87 | ATGGTGGG | -0.173 E-score
88 | CAGCGACC | -0.231 E-score
89 | AGCTAACC | -0.2 E-score
90 | ACGGGGCA | -0.125 E-score
91 | AATGTCCC | -0.122 E-score
92 | ATCTCTCA | 0.295 E-score
93 | AGCAAAAC | 0.00119 E-score
94 | ATAATATG | 0.0759 E-score
95 | ATTATTGA | 0.136 E-score
96 | AAATCTCT | 0.392 E-score
97 | ATACGGCC | 0.0441 E-score
98 | ATACCTTC | 0.088 E-score
99 | ACGGGGGA | -0.0883 E-score
100 | AAAATACA | 0.203 E-score

Row | Sequence | binding signal
101 | ACAATGGA | 0.0186 E-score
102 | AGCTAGGG | -0.211 E-score
103 | ACCCACGC | -0.222 E-score
104 | ACTATCAA | 0.013 E-score
105 | AAGTGACC | -0.0699 E-score
106 | ATTATTCA | 0.197 E-score
107 | ATGGAAGA | 0.0609 E-score
108 | AGGTGGAT | 0.193 E-score
109 | ACATCAAT | -0.0106 E-score
110 | ACGAGGAT | 0.218 E-score
111 | ATCTGAAT | 0.319 E-score
112 | ATTCGAAT | 0.221 E-score
113 | ACTGGGAA | 0.0151 E-score
114 | ACGTGTGC | -0.0723 E-score
115 | AGGAGGCA | -0.26 E-score
116 | CACTGCCA | -0.227 E-score
117 | ACGAATAT | 0.231 E-score
118 | ATGTTAGG | -0.0699 E-score
119 | AGCGGTAA | 0.105 E-score
120 | AGCACCTC | -0.219 E-score
121 | ACATAAGA | 0.0102 E-score
122 | AATCTCCT | 0.401 E-score
123 | AACACAAG | 0.0588 E-score
124 | ATCGTGTA | 0.262 E-score
125 | AGTCATAG | -0.128 E-score

Row | Sequence | binding signal
126 | AGTTTCTA | -0.0593 E-score
127 | AATAACTA | -0.0153 E-score
128 | ATCCGTGC | 0.154 E-score
129 | CACTAAAG | 0.0275 E-score
130 | CAACGGGG | -0.0433 E-score
131 | AGGAGTAC | -0.146 E-score
132 | AAGGGGGT | -0.275 E-score
133 | ATGCTCCG | -0.0984 E-score
134 | AGCAGTCC | -0.194 E-score
135 | ACGCAACA | 0.064 E-score
136 | AAAACCAG | -0.173 E-score
137 | ACCTAAAT | 0.222 E-score
138 | AGCCTCTC | -0.251 E-score
139 | AGTTGACG | 0.0212 E-score
140 | AAATGGAA | -0.00517 E-score
141 | AAGATATG | 0.352 E-score
142 | AAGGACCT | -0.262 E-score
143 | ATCACGGG | 0.0315 E-score
144 | ACTCTGCT | -0.0847 E-score
145 | ATCGCTGG | 0.126 E-score
146 | AGGGCAGA | -0.124 E-score
147 | CAAGCCAG | -0.186 E-score
148 | CAAGTGAC | -0.074 E-score
149 | ACGTCAAA | -0.00516 E-score
150 | ATGCACTA | -0.0453 E-score

Row | Sequence | binding signal
151 | AGAAATAT | 0.362 E-score
152 | AACGTTGA | -0.00981 E-score
153 | ACACCCTA | 0.00265 E-score
154 | ACCCACCA | -0.13 E-score
155 | CAGAAGTA | -0.0301 E-score
156 | ACGCGTCA | -0.132 E-score
157 | ATAGTATG | -0.0605 E-score
158 | CACTATTA | 0.0119 E-score
159 | ATTGCCGC | 0.0596 E-score
160 | AATTATAT | 0.192 E-score
161 | AGCGATGC | -0.128 E-score
162 | ATACTGAT | 0.183 E-score
163 | AAATGACC | -0.113 E-score
164 | AACAGTAA | 0.125 E-score
165 | AAACCGAT | 0.121 E-score
166 | AGCTTCGC | -0.161 E-score
167 | ACCTTACT | -0.0889 E-score
168 | ACGACCCA | -0.171 E-score
169 | AACAGTTC | -0.144 E-score
170 | ACTCGAAT | 0.0921 E-score
171 | AGTTAGCA | 0.0967 E-score
172 | ATTACGCG | 0.332 E-score

Reference: paper PMC5836133
